# Laboratory results: the BET-seq Pho4 binding data (Le et al. 2018)
# This is one part of the list. These are noisy estimates, calculated here from bound and input reads.
# Biological target: T1, Pho4 (S. cerevisiae) (UniProt P07270)
# T1 sequence: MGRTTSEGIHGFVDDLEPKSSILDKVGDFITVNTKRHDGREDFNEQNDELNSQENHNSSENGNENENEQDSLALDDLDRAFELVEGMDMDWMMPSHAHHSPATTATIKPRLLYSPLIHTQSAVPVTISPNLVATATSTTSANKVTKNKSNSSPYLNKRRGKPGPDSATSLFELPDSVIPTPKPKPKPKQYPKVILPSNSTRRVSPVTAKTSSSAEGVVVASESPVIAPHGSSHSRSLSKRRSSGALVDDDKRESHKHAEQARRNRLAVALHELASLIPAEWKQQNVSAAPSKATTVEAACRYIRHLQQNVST
# Assay: relative binding free energy (BET-seq); higher = weaker binding
# Conditions: reference: library average
row,Sequence,relative binding free energy [kcal/mol]
1,AGTATCACGTGGGTCG,0.05
2,TATTTCACGTGGTTAC,0.29
3,TGTTGCACGTGCATGT,-0.1
4,TTATGCACGTGATATT,0.05
5,TGTGTCACGTGGTTAG,0.06
6,GTCAACACGTGTTATT,-0.01
7,GGTGACACGTGGACTT,0.11
8,TTATGCACGTGGGAAC,-0.04
9,GGTCTCACGTGGGCTG,0.12
10,GGTGGCACGTGAGTTA,0.2
11,TGCATCACGTGATTGA,0.24
12,TGTCTCACGTGTAGTG,0.25
13,ATGATCACGTGTCGGA,0.25
14,TATAGCACGTGGGATG,-0.22
15,ACTATCACGTGAAGTG,0.35
16,TGGTGCACGTGGGCAG,-0.21
17,ACGTGCACGTGGGGCA,-0.34
18,TGGATCACGTGACGGG,0.26
19,TAATTCACGTGTGTCT,0.25
20,GGTGACACGTGTATGT,0.15
21,TGCTACACGTGGTAGT,0.01
22,TGGATCACGTGGGGTT,0.09
23,AGTCTCACGTGTAAGT,0.11
24,AGTCGCACGTGTTGTA,-0.1
25,TAAGACACGTGATGTT,0.27

row,Sequence,relative binding free energy [kcal/mol]
1,GTGCGCACGTGCGGTG,-0.07
2,CGCAGCACGTGTTGGT,-0.15
3,GTGTGCACGTGATAAG,0.01
4,CTCGTCACGTGGGTGA,0.04
5,GATATCACGTGTGTTG,0.15
6,CACTTCACGTGTGGGG,0.06
7,TTTGTCACGTGTCTGC,0.05
8,GGTTCCACGTGAGGTT,0.27
9,TGGCCCACGTGAAGGT,0.26
10,GTAAGCACGTGGAAGT,0
11,ATTGGCACGTGGCGTC,-0.23
12,AGCGTCACGTGGCGGG,-0.03
13,TATCGCACGTGTAGGG,-0.12
14,TTACACACGTGTAGGT,-0.07
15,CGAAGCACGTGTAGGG,-0.03
16,TACATCACGTGGTCGT,0.16
17,ACGGGCACGTGCGGGC,-0.18
18,TGGGTCACGTGGGAAC,0.16
19,TGCCACACGTGGGAGG,-0.09
20,TGGGCCACGTGTCTTG,-0.12
21,AAATGCACGTGATGTA,0
22,TTGGGCACGTGGCATC,-0.15
23,AGTCACACGTGCAGGG,0.12
24,TTTGGCACGTGGGATG,-0.11
25,GTCGTCACGTGTGTGC,0.04

row,Sequence,relative binding free energy [kcal/mol]
1,GTAGTCACGTGGGGCC,-0.11
2,TTTGCCACGTGTGGTC,-0.17
3,ATCTGCACGTGTACGG,0.1
4,GTTATCACGTGCGTAT,0.14
5,TGGGACACGTGAGTAT,0.22
6,TGAAACACGTGTTCGT,-0.01
7,CAGTTCACGTGTGTGA,0.25
8,TGAATCACGTGGTAGA,0.05
9,CTGTTCACGTGGGTAA,0.21
10,AGAGTCACGTGCGAGG,0.06
11,GGCAGCACGTGGTTAG,-0.01
12,GTTGACACGTGAGGTA,0.26
13,GTAAACACGTGGCGTT,-0.09
14,TGTGTCACGTGTAGGA,0.11
15,ATGGGCACGTGCGCGC,-0.1
16,TTGCGCACGTGTGGCG,-0.14
17,AGAGTCACGTGAGGTG,0.28
18,TAATGCACGTGTGAGG,-0.04
19,ATAGACACGTGAGTAG,0.17
20,ATTGCCACGTGTATTT,-0.02
21,GATTACACGTGGTGTG,0.07
22,GGGCGCACGTGAGCGT,0.1
23,TGGCTCACGTGTTTTT,0.12
24,TAGGACACGTGAAGGA,0.31
25,AGAAACACGTGTTGTA,0.03

row,Sequence,relative binding free energy [kcal/mol]
1,CTAAGCACGTGTGAGT,-0.03
2,TCTAACACGTGTGTGG,0.02
3,GGTATCACGTGAGTAA,0.23
4,TTGTGCACGTGACAGG,0.06
5,TATTACACGTGGTGAG,0.01
6,GGGGGCACGTGGAGTT,0
7,CTGTTCACGTGAATGG,0.36
8,CGCTTCACGTGGTTTT,0.28
9,TTAGACACGTGTGAAA,0.21
10,TGTTGCACGTGTCGAT,0
11,TTGTACACGTGCGTTG,0.06
12,GTGTCCACGTGTGGAT,-0.07
13,TTAGGCACGTGCGGCT,-0.16
14,AAAGGCACGTGGTAGC,-0.2
15,GAAGGCACGTGTAGGC,0.01
16,TTTTTCACGTGGAACT,0.4
17,GTACACACGTGGGGTG,-0.09
18,TGTGTCACGTGAACAT,0.19
19,GGTATCACGTGGGTCA,0.09
20,GTGGGCACGTGATTGA,-0.01
21,GTAGGCACGTGTAGCG,0.05
22,TTTTGCACGTGCTATG,0.03
23,ATCGGCACGTGGGGGA,-0.21
24,GGATTCACGTGCTGGC,0.33
25,TATGTCACGTGGGGGA,0.04

row,Sequence,relative binding free energy [kcal/mol]
1,GTGGACACGTGAGCTG,0.34
2,GGGTACACGTGCGGTT,0.06
3,ATTCACACGTGAGTGT,0.04
4,TTAGACACGTGATGTG,-0.02
5,CAGTGCACGTGTTCTG,0.06
6,GGTGTCACGTGGGTGA,-0.01
7,AAGCACACGTGTGGTT,0.1
8,CGTTACACGTGAGGGG,0.29
9,TATGTCACGTGGTCTG,0.01
10,GGGTGCACGTGCGAGC,-0.03
11,AGGTACACGTGGGGAG,0.02
12,AATTGCACGTGAAGGA,0.15
13,CTGATCACGTGGTTTG,0.04
14,TCTATCACGTGGTAAT,0.1
15,TATGGCACGTGGATCT,-0.18
16,CGCAACACGTGGGTTG,-0.09
17,GTTAACACGTGCTGGG,-0.05
18,TTAGTCACGTGAAGCT,0.28
19,AGGTGCACGTGACTTT,0.14
20,TTCGGCACGTGTTTTC,-0.03
21,ACAGACACGTGGGGTT,-0.1
22,TACGGCACGTGTATGT,-0.03
23,GAAGTCACGTGTTTCT,0.27
24,GTATACACGTGGGGCT,-0.03
25,TGGTACACGTGATAGG,0.18

row,Sequence,relative binding free energy [kcal/mol]
1,CGGAGCACGTGTTTTT,-0.07
2,TGGTACACGTGATGGG,0.2
3,TGAAGCACGTGAGCGT,0.02
4,ATGACCACGTGTTTGG,-0.08
5,ATGGCCACGTGGGGGT,-0.23
6,CTTGACACGTGTGTTT,0.02
7,TAAGTCACGTGGAAGG,0.11
8,ATAGGCACGTGGAATG,0.08
9,ATAGGCACGTGAAGTT,0.13
10,TGAGCCACGTGTTTTG,0.02
11,GTTACCACGTGGCTGG,0.02
12,GTACGCACGTGATTTG,0.15
13,GTGTCCACGTGATGTG,0.11
14,TGAGTCACGTGTATGG,0.17
15,AAGTTCACGTGGATAT,0.33
16,TCGGTCACGTGAAATG,0.24
17,AGGTACACGTGGCGGA,-0.06
18,TCTCGCACGTGTGTTG,-0.07
19,TATTACACGTGGTTCT,0
20,ATGGTCACGTGAGCTT,0.09
21,GCGAGCACGTGGGTAG,-0.28
